Experimental findings from PubChem BioAssay (NCI) are described below.

“And” between values parts separate entries of the source, which are not always exact repeats. Equal entries are not always repeated.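 Dose response: 5 concentrations. Exposure: 48 h. Format: 96-well plates. Endpoint: linear interpolation; highest concentration if not reached. At the GI50, growth is halved. Definition used: TGI = concentration required for complete inhibition of growth.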 Where only a bound is given, the exact number is not on record here.

This test deals with NCI-H322M lung. Kind of test: NCI tumour cell line growth inhibition, 48 h.
For the compound `CSc1nc(SC)c2c(C)cn(Cc3ccccc3)c2n1`, the TGI was > 100 µM. `CCOC(=O)c1c2c(n(Cc3ccccc3)c1C)-c1nc[nH]c1C(=O)C2=O`: the GI50 was 14.3 µM and the TGI amounted to 27.6 µM. `CC(C)(Cl)C(Br)CCC(=CCBr)CBr` (mixture of isomers) gave a TGI of 28 µM.

As for `CCN(CC)CCOc1ccc(N2Cc3cc(OC)c(OC)cc3C2=O)cc1`, the TGI was > 100 µM. Take `O=C(NC/C=C/CO)c1ccccc1`: the TGI was > 100 µM. Same read-out and setting: the result for `O=C1CCN(CCC(F)(F)C(F)(F)C(F)(F)C(F)(F)F)C(=S)N1` reads > 100 µM; that for `CNC(=S)N/N=C(\C)c1cc(OC)c(OC)cc1O`, > 100 µM. In the case of `Fc1ccc(-c2nn3c(COc4ccccc4Cl)nnc3s2)cc1Oc1ccccc1`, the GI50 is 22.7 µM and the TGI was determined as 54.9 µM. Turning to `N#CC(NNC(=O)Cc1ccccc1)c1ccc(O)cc1` (stereo not given), the TGI is > 100 µM.

For the compound `Nc1ccc(-c2nnc(-c3c(Cl)c(Cl)c(Cl)c(Cl)c3-c3nc4ccc(C(=O)c5ccccc5)cc4[nH]3)o2)cc1`, the TGI was > 100 µM. For `COc1cc(CN(C)N2C(=O)c3cccc4cc([N+](=O)[O-])cc(c34)C2=O)cc(OC)c1OC`, the TGI was > 100 µM. As to `Cc1ccc([I+]c2ccc(C)cc2)cc1`, the GI50 was 15.5 µM and the TGI is > 100 µM. With `CCOC(=O)c1cc2c(OC)cc(OC)cc2oc1=O`, the TGI was > 100 µM. Same read-out and setting: the result for `C=CCC1=C2CCCCC2CCC1=O` (stereo not given) reads > 100 µM. As to `Nc1cc2c(c3ccccc13)C(CCl)CN2C(=O)c1cc2cc(NC(=O)c3cc4ccccc4o3)ccc2[nH]1` (stereo not given), the GI50 is > 0.11 µM and the TGI was found to be 913 µM. Take `COc1ccc(/C=C/C(=O)c2ccc(B(O)O)cc2)cc1O`: the GI50 was 26.1 µM and the TGI was > 82.7 µM.

On to `CC1(C)CC(=O)c2c(nc3c(ccc4ccccc43)c2-c2ccc(NC(=O)CCCCCCCCC(=O)Nc3ccc(-c4c5c(nc6c4ccc4ccccc46)CC(C)(C)CC5=O)cc3)cc2)C1`, for which the TGI is > 100 µM. As for `Cc1ccccc1C(C#N)/C(=N/NC(N)=S)C(=O)Nc1c(C)cccc1C` (stereo not given), the TGI was > 100 µM.

As for `Nc1ccc(N=Nc2ccc(-c3ccc(N=Nc4c(S(=O)(=O)O)cc5cc(S(=O)(=O)O)c(N=Nc6ccc([N+](=O)[O-])cc6)c(N)c5c4O)cc3)cc2)c2cc(S(=O)(=O)O)ccc12`, the TGI was > 100 µM.

Turning to `CCCCCCCCOP(=O)(O)OP(=O)(O)OCC1OC(n2ccc(N)nc2=O)C(O)C1O` (stereo not given), the TGI is > 100 µM.

For the compound `Cc1c(/C=N/NC(=S)Nc2ccc([N+](=O)[O-])cc2)c(=O)n(-c2ccccc2)n1C`, the TGI is 47.5 µM. Turning to `COc1ccc(-c2cc(=O)c3cc4c(cc3[nH]2)OCO4)c(OC)c1`, the TGI was > 100 µM. The same measure, in the same setting: the result for `CCOC(=O)c1sc2c(c1OC(=O)c1ccc(Cl)cc1Cl)c(=O)n(-c1ccccc1)c(=S)n2-c1ccccc1` reads > 100 µM; that for `COc1ccc2c(c1)C(=O)/C(=C/c1ccccc1)C2`, > 100 µM; that for `Cc1ccc([N+](=O)[O-])cc1S(=O)(=O)Nc1ccc(C(=O)/C=C/c2ccccc2)cc1`, 42.9 µM. Still for that read-out and setting: the result for `O=C1NC(=S)NC1C(Cc1ccccc1)c1ccco1` (stereo not given) reads > 100 µM. For `COc1cccc(Nc2ncnn3ccc(CN4CC[C@@H](N)[C@H](O)C4)c23)c1`, the GI50 was 0.0277 µM and 0.0361 µM; the TGI is 8.48 µM and 5.48 µM. Take `Cc1ccc(S(=O)OC2c3ccccc3Cc3ccccc32)cc1` (stereo not given): the TGI stood at 51 µM. On to `CC(=O)OC1C(COC(N)=O)OC(n2c(-c3ccc(C)cc3)cc(-c3ccccc3)c(C#N)c2=O)C(OC(C)=O)C1OC(C)=O` (stereo not given), for which the TGI is > 100 µM.

Take `COc1ccc(-c2nc(Nc3ccc(F)cc3)nc(Nc3ccc4c(c3)nc(C)n4Cc3ccccc3)n2)cc1`: the GI50 is > 100 µM and the TGI was > 100 µM. In the case of `CCC(CO)COC(=O)/C=C/C(=O)OCC(CC)CO` (stereo not given), the TGI is > 100 µM. Consider `COc1cc2cc(Oc3ccc(NC(=O)Nc4ccc(F)c(C(F)(F)F)c4)cc3)c(C)nc2cc1OCCN1CCOCC1`, for which the GI50 is 3.38 µM and the TGI amounted to 13.6 µM. Take `Clc1ccc(-c2cn3c(nc4ccccc43)c(/C=C/c3cccs3)n2)cc1`: the TGI was > 100 µM. Consider `O=P1(O)c2ccccc2CSCc2ccccc21`, for which the TGI was > 100 µM.

For `COCN1C(=O)[C@@H]2CCCN2C(=O)c2ccc(Cl)cc21`, the TGI was > 100 µM. `COC(=O)Nc1nc2ccc(C(=O)C3CC3)cc2[nH]1`: the GI50 is 0.586 µM and the TGI is > 100 µM. With `COC1OC(CO)C(O)C(NC(=O)N(C)N=O)C1O` (stereo not given), the TGI was > 100 µM. With `O=C1/C(=C\c2ccc(Cl)cc2)CN(C(=O)c2ccccc2)C/C1=C\c1ccc(Cl)cc1`, the GI50 was 25.9 µM and the TGI was > 100 µM. As for `CN(CC(=O)O)S(=O)(=O)c1ccc(Cl)cc1`, the TGI is > 100 µM. For the compound `NS(=O)(=O)c1ccc(N=Nc2c(O)[nH]c3cccc(CCc4ccncc4)c23)cc1`, the GI50 is > 25 µM and the TGI was > 25 µM. Regarding `ClCCN(CCCl)c1ccc(OCc2ccccc2)cc1`, the GI50 is 17.2 µM and the TGI is 64.4 µM. Take `COc1ccc(-c2nnc3c4ccccc4sn23)cc1`: the TGI is > 100 µM. Turning to `CC(=O)N[C@@H](Cc1ccc(OP(=O)(O)O)cc1)C(=O)N[C@H]1CCC(=O)N2CCC[C@@H](C(=O)NCc3cccc4ccccc34)N2C1=O`, the GI50 is > 25 µM and the TGI was > 25 µM. Take `O=C1CNC(=O)N1`: the TGI is > 1120 µM.

`Oc1c(Nc2ccccc2)cc2c3c1N=NC=3CCN=2`: the TGI is > 100 µM. The same measure, in the same setting: the result for `CCOC(=O)Nc1nc(-c2ccccc2)c(C)s1` reads > 100 µM; that for `COC(=O)CCC(=O)C(CC(=O)OC)C(=O)CCC(=O)NCCc1ccccc1` (stereo not given), > 100 µM. In the case of `CSc1nc(SC)c2cnn(-c3ccnc4cc(Cl)ccc34)c2n1`, the GI50 is 43.1 µM and the TGI is > 100 µM. As to `CC1=CC=C2C(C)(C)CC[C@@H]3OC(=O)[C@H]1[C@]23C`, the TGI is > 100 µM. On to `COc1ccc(C(=O)/C=C/c2ccc(OCC(=O)N3CCN(c4ccccc4)CC3)cc2)cc1OC`, for which the TGI was > 10 µM.

Regarding `C#CCOCCCC(=O)O`, the TGI was > 100 µM.

For `Cc1ccc(NCCO)cc1`, the TGI is > 100 µM. The same measure, in the same setting: with `O=C(CSc1nc(-c2ccccc2)c(-c2ccccc2)[nH]1)N/N=C/c1ccc([N+](=O)[O-])cc1` the figure was 51 µM; with `Cc1cnc2cc(Cl)ccc2c1NCCN(CC(C)C)CC(C)C`, > 100 µM. With `CC(C)(C)OC(=O)CCC1NC(=O)[C@@H]2Cc3c([nH]c4ccccc34)C(c3ccccc3)N2C1=O` (stereo not given in full), the TGI was > 100 µM. For the compound `CN(NC(=O)c1ccc(Cl)cc1)C1=NCCCCN1`, the TGI is > 100 µM. On to `CC(C)[C@]12O[C@H]1[C@@H]1O[C@]13[C@]1(O[C@H]1C[C@H]1C4=C(CC[C@@]13C)C(=O)OC4)[C@@H]2OC(=O)OC(C)(C)C`, for which the GI50 is 0.0204 µM and the TGI was > 100 µM. Regarding `COC(=O)c1oc([N+](=O)[O-])c(-c2ccccc2)c1-c1ccccc1`, the TGI is > 100 µM.

On to `N#Cc1nc(/C=C/c2cccs2)oc1N`, for which the TGI is > 100 µM. On the same count and under the same terms, with `CN1C[C@@H]2CC(=O)CC[C@@H]2C[C@H]1C#N` the figure was > 100 µM; with `Cc1ccc(S(=O)(=O)NN=C2C(C)CC(C(C)(C)C)CC2C)cc1` (stereo not given), 34 µM. Take `CC[n+]1c(/C=C/c2ccc(N3CCCC3)cc2)cccc1/C=C/c1ccc(N2CCCC2)cc1`: the GI50 was 0.537 µM and the TGI came out at 2.44 µM. The matching figures for `Cc1cn2c(/C=N/NC3=NCCN3)c(-c3ccc(Cl)c([N+](=O)[O-])c3)nc2s1`: 0.83 µM and 1.83 µM.

Consider `CO[C@@H]1[C@H](N(C)C(=O)c2ccccc2)C[C@@H]2O[C@]1(C)n1c3ccccc3c3c4c(c5c6ccccc6n2c5c31)C(=O)NC4=O`, for which the GI50 is 10.5 µM and the TGI was > 100 µM.

For the compound `CC(Cc1ccc(O)cn1)(NC(=O)c1ccccc1)C(=O)O` (stereo not given), the TGI was > 100 µM.

For `CNc1cccc(-c2cc(=O)c3cc4c(cc3[nH]2)OCO4)c1`, the TGI is > 100 µM.

Consider `CC1(C)CCCC2(C)[C@@H]1CC[C@]13C[C@](C)(CC[C@@H]21)[C@@H]3CO` (stereo not given in full), for which the TGI was > 100 µM. Consider `CCOc1ccc(-n2c(=O)c3nn4c(=O)n(-c5ccc(OCC)cc5)c(=O)c4nn3c2=O)cc1`, for which the TGI is > 100 µM. On the same count and under the same terms, the result for `CCCC(c1cc(C(C)(C)C)c(O)cc1C)c1cc(C(C)(C)C)c(O)cc1C` reads 14.5 µM. Turning to `COc1cc(S(=O)(=O)Nc2ccc(-c3csc(/N=C\c4ccccc4O)n3)cc2)ccc1Cl`, the TGI was > 100 µM. The same measure, in the same setting: the result for `CNC(=O)Nn1c(SC)nc2ccccc21` reads > 100 µM; that for `CO[C@@H]1C[C@H]2[C@@H]3CC[C@H]([C@@H](C)COC(C)=O)[C@@]3(C)CC[C@@H]2[C@@]2(C)CC[C@H]3C[C@]312`, 34.3 µM; that for `O=C(c1ccccc1)c1ccc(N2C(=O)/C(=C/c3cccc([N+](=O)[O-])c3)N=C2c2ccccc2)c(N2C(=O)/C(=C/c3cccc([N+](=O)[O-])c3)N=C2c2ccccc2)c1`, > 100 µM.

Take `NC(=S)Nc1c(S(N)(=O)=O)cc(S(N)(=O)=O)c(Cl)c1Cl`: the TGI is > 100 µM.

On to `O=C(O)c1ccc(NCn2nc(-c3ccccc3O)oc2=S)cc1O`, for which the GI50 is > 100 µM and the TGI was > 100 µM. As to `COc1ccc(C(=O)O[C@@H]2CCN3CC[C@H](C)[C@H]23)cc1`, the TGI is > 100 µM. Regarding `COc1ccc(/C=C2\N=C(N3CCOCC3)NC2=O)cc1`, the TGI was > 100 µM. Still for that read-out and setting: the result for `N#CCC(=O)N/N=C(/C(=O)Nc1ccccc1)C1C(=O)N(c2ccccc2)N=C1N` (stereo not given) reads > 100 µM. With `CCCc1c(O)c2ccccc2[nH]c1=O`, the TGI is > 100 µM. Regarding `Cc1cc2c(=O)cc(-c3ccc(Cl)c(Cl)c3)oc2c(C(=O)O)c1C`, the TGI is > 100 µM. On the same count and under the same terms, the result for `CC(=O)Nc1ccc(S(=O)(=O)N/N=C/c2cc(I)cc([N+](=O)[O-])c2O)cc1` reads > 100 µM. In the case of `CCOC(=O)Nc1ccc2c3c(cccc13)-c1ccccc1-2`, the GI50 was 5.27 µM and the TGI was > 100 µM. The matching figures for `O=C(NCCNc1nccc(-c2c(-c3ccc(F)cc3)nc3sccn23)n1)Nc1cccc(C(F)(F)F)c1`: 12.3 µM and 34.1 µM.

On to `CCOC(=O)C(CC(C)C)NC(=O)C(N)Cc1ccc(N(CCCl)CCCl)cc1` (stereo not given), for which the TGI turned out to be 50.2 µM.
